Data published in PubChem BioAssay AID686979 (National Center for Advancing Translational Sciences (NCATS), 2013).
The whole screen tested about 420,000 compounds, of which about 50,000 (12%) were called active. The shares of active, inactive and inconclusive entries below differ from those in the screen. Calls follow the shape of the dose curve; as a rule, active = well fitted inhibition curve with a large enough effect; inconclusive = small, poorly fitted or top-dose-only effect; inactive = flat fitted curve, though single readings scatter. Potencies of inconclusive entries are left out as doubtful fits.

test: qHTS for Inhibitors of human tyrosyl-DNA phosphodiesterase 1 (TDP1): qHTS in cells in presence of CPT; settings: chicken DT40 Tdp1-/-;hTDP1 cells + 20 nM CPT, ATP luminescence, 48 h; activity change, negative = growth inhibition: at 46.2 µM (top of the series); also: nearly all actives have a fitted effect of over 55% in size
Outline: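 Chicken DT40 Tdp1-/- cells complemented with human TDP1, 400 cells/well, exposed to compounds plus 20 nM camptothecin for at least 48 h at 37 C; viability read as ATP content by CellTiter-Glo luminescence.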
% is scaled to controls: 0 for no effect and ±100 for the full control effect; potency is read from the fitted curve at half-maximal effect; tags tell the direction and shape of the fitted curve.

Row | SMILES | Potency | activity change, negative = growth inhibition
1 | Cn1c(O)c(N=NC(=O)Cc2c[nH]c3ccccc23)c2ccccc21 | inconclusive [inhibitor, partial curve] | –
2 | O=C(CSc1ccc(-c2nc3ccccc3[nH]2)cn1)Nc1ccc(S(=O)(=O)NC2CC2)cc1 | active: 25.9 µM | –
3 | COc1ccccc1-c1cc(C(F)(F)F)nc(S(=O)(=O)CCCC(=O)N2CCOCC2)n1 | active: 2.59 µM | –
4 | CC(=O)Nc1c(-c2ccccc2)nc2cc(C)ccn12 | – | inactive: 3.02%
5 | Cc1cc(Cl)ccc1C(O)c1ncc(-c2ccc(F)cc2)[nH]1 (stereo not given) | inconclusive [inhibitor, single point] | –
6 | COc1ccc(-c2coc3cc4oc(=O)cc(-c5ccccc5)c4cc23)cc1F | active: 3.66 µM | –
7 | O=C(Nc1ccccc1F)NC1CCCc2ccccc21 (stereo not given) | – | inactive: 0.924%
8 | Cc1ccnc(NC(=O)Nc2cccc(F)c2)n1 | inconclusive [inhibitor, full curve, poor fit] | –
9 | Cc1ccc(C)c(OCc2cc(C(=O)N3CCN(c4cnccn4)CC3)no2)c1 | inconclusive [inhibitor, single point] | –
10 | Cn1c(=O)c2cc(S(=O)(=O)NC(Cc3ccccc3)C(=O)Nc3ccc(F)cc3)ccc2n(C)c1=O (stereo not given) | inconclusive [inhibitor, single point] | –
11 | CCN(CC)c1ccc(/C=C(\C#N)c2ccccn2)cc1 | active: 2.59 µM | –
12 | Cc1cc(N2CCOCC2)n2nc(C)c(-c3ccccc3)c2n1 | – | inactive: -4.88%
13 | CCCCn1c(=O)[nH]c(=O)c2c1nc(-c1cc(Br)ccc1OC)n2C | – | inactive: -2.46%
14 | CC(C)N(C(=O)CSc1nnc(NC2CC2)s1)c1ccccc1 | – | inactive: -8.77%
15 | Cc1sc2nc(COC(=O)c3ccc(Cl)c(N)c3)[nH]c(=O)c2c1C | active: 16.4 µM | –
16 | CC(C)Oc1cccc(C(=O)C2CCCN(C(=O)c3noc4c3CCCC4)C2)c1 (stereo not given) | active: 18.4 µM | –
17 | CN(C)c1ccc(C(C(=O)NCc2ccccc2)N(Cc2cccnc2)C(=O)c2snc(C(N)=O)c2N)cc1 (stereo not given) | active: 20.6 µM | –
18 | COc1ccc(C(=O)NC2CCCCCC2)cc1S(=O)(=O)N1CCOCC1 | – | inactive: -22.1%
19 | OC(c1ccco1)c1nc(-c2cccs2)cs1 (stereo not given) | inconclusive [inhibitor, single point] | –
20 | COC(=O)c1ccc(C23CC4(C2)[C@H](CN(Cc2ccc(-c5ccccc5)cc2)[C@@H]4c2ccccc2)C3c2ccc(C(F)(F)F)cc2)cc1 (stereo not given in full) | inconclusive [inhibitor, single point] | –
21 | O=C(c1ccccc1Cl)n1nc(-c2ccco2)nc1NCc1cccs1 | inconclusive [inhibitor, single point] | –
22 | C[C@H](CO)N1C[C@H](C)[C@@H](CN(C)C(=O)c2cccnc2)Oc2ncc(Br)cc2C1=O | – | inactive: 0.737%
23 | COc1ccc(-c2[nH]c(-c3ccc(Cl)cc3)nc2SCC(=O)Nc2nccs2)cc1 | active: 16.4 µM | –
24 | CCN(CC(=O)Nc1cccc(OC)c1)CC(=O)Nc1ccc(C)cc1Cl | inconclusive [inhibitor, single point] | –

Row | SMILES | Potency | activity change, negative = growth inhibition
25 | Fc1ccccc1COc1ccc(C(=S)N2CCCC2)cc1 | inconclusive [inhibitor, single point] | –
26 | CC(C)c1c(O)nc(SCCOc2ccc(Cl)cc2)[nH]c1=O | – | inactive: -21.2%
27 | NC(COCc1ccccc1)c1csc(Nc2ccc(S(N)(=O)=O)cc2)n1 (stereo not given) | inconclusive [inhibitor, partial curve] | –
28 | Cc1ccccc1NC(=O)c1cc(C(=O)c2cc(Cl)ccc2O)cn(-c2ccccc2C)c1=O | active: 13 µM | –
29 | Cc1nc(-c2ccc(S(=O)(=O)Oc3ccccc3Cl)s2)cs1 | inconclusive [inhibitor, single point] | –
30 | CCOC(=O)c1ccc(CN(Cc2ccc(F)cc2)S(=O)(=O)c2ccc(F)c(C(=O)Nc3cc(Cl)ccc3OC)c2)cc1 | – | inactive: 6.22%
31 | COc1ccc(CN(CC(=O)NC2CCCC2)C(=O)CCC(=O)Nc2cc(C)on2)cc1 | – | inactive: -25.2%
32 | C(=N\c1nc2ccccc2n1CCN1CCOCC1)/c1cccs1 | – | inactive: 8.93%
33 | O=C1CCNc2cc3ccccc3cc21 | inconclusive [inhibitor, partial curve] | –
34 | COCCN(CCOC)c1ncc(Cl)c(C(=O)c2c(C)cc3ccccn23)n1 | inconclusive [inhibitor, single point] | –
35 | CCc1ccc2c(c1)NC(=O)C2(C)Cc1ccc(Cl)s1 (stereo not given) | inconclusive [inhibitor, single point] | –
36 | CC1CCC(NC(=O)CNC(=O)Cc2cccc3ccccc23)CC1 (stereo not given) | inconclusive [inhibitor, single point] | –
37 | Cc1ccccc1Cn1c2ccccc2c2cnn(CC(=O)NCc3cccc(Cl)c3)c(=O)c21 | active: 14.6 µM | –
38 | CCN(CC)c1ccc(NC(=O)COCc2cc(-c3ccc4c(c3)OCO4)on2)c(C)c1 | inconclusive [inhibitor, single point] | –
39 | CCN1C(=O)CS/C1=N\S(=O)(=O)c1ccccc1 | – | inactive: -20.2%
40 | CC(C)(C)[C@H]1COC(=O)CC/C=C\C[C@H](CC(=O)N(CCO)Cc2ccccc2)C(=O)N1 | inconclusive [inhibitor, partial curve] | –
41 | CCOc1ccc(C(=O)Nc2sc3c(c2C(=O)OC)CC(C)(C)NC3(C)C)cc1 | inconclusive [inhibitor, partial curve, poor fit] | –
42 | COc1ccc(S(=O)(=O)N[C@@H](Cc2ccc(Cl)cc2)C(=O)N2CC[C@@]3(O)CCCC[C@H]3C2)cc1 | inconclusive [inhibitor, single point] | –
43 | CCN(C[C@H]1N[C@@](CC)(C(=O)OC)[C@H]2C(=O)N(C)C(=O)[C@@H]12)C(=O)c1ccccc1 | – | inactive: -12.3%
44 | CN(C)C(=O)CSc1cccc2cccnc12 | active: 4.61 µM | –
45 | O=C(COc1ccc2c3c(c(=O)oc2c1)CCCC3)NCCCN1CCOCC1 | – | inactive: -8.44%
46 | CC(N=Cc1cccc(O)c1O)c1ccccc1 (stereo not given) | inconclusive [inhibitor, single point] | –
47 | COc1ccc(/C(C)=N/NC(=O)CCC(=O)Nc2ccc(Cl)cc2Cl)c(OC)c1 | inconclusive [inhibitor, partial curve, poor fit] | –
48 | Cc1ccc(-c2csc(N/N=C/C=C/c3ccccc3)n2)cc1 | inconclusive [inhibitor, single point] | –

Row | SMILES | Potency | activity change, negative = growth inhibition
49 | CCCCCCCCC(c1nc2ccccc2[nH]1)N1CCN=C1c1cc2ccccc2[nH]1 (stereo not given) | active: 7.31 µM | –
50 | C=CCn1cc(C(=O)N2CCc3ccccc3C2)c(=O)c2cc(S(=O)(=O)N(CC)CC)ccc21 | inconclusive [inhibitor, single point] | –
51 | FC(F)(Cl)c1nnc2ccc(Cl)nn12 | inconclusive [inhibitor, single point] | –
52 | COc1cccc(-c2ocnc2C(=O)Nc2ccc3c(c2)CCC3)c1 | – | inactive: -16.4%
53 | CC(C)Oc1ccc(CN2CCC2(C)C(=O)Nc2ccc(Cl)c(Cl)c2)cc1 (stereo not given) | inconclusive [inhibitor, single point] | –
54 | CC12CCC(C(=O)Nc3cc(Cl)ccc3Cl)(C/C1=N\O)C2(C)C (stereo not given) | – | inactive: -21.3%
55 | N#Cc1ccc(CSc2nnc(-c3cccs3)n2-c2ccccc2)cc1 | – | inactive: -28.2%
56 | Cc1ccccc1C(=O)Nc1nnc(CC(=O)N/N=C/c2cn(Cc3ccccc3)c3ccccc23)s1 | inconclusive [inhibitor, single point] | –
57 | C1=C(c2ccccc2)CCN(c2nc3ccccc3n3cnnc23)C1 | inconclusive [inhibitor, partial curve] | –
58 | Cc1ccccc1CS(=O)(=O)c1ccc(C(=O)N2CCOCC2)cc1[N+](=O)[O-] | inconclusive [inhibitor, single point] | –
59 | CC(=O)N1CCCc2cc(S(=O)(=O)N(C)CC(=O)Nc3ccc(C(C)C)cc3)ccc21 | active: 18.4 µM | –
60 | O=C(Nc1nc(-c2ccc3c(c2)OCO3)cs1)c1ccncc1 | active: 14.6 µM | –
61 | Cc1onc(-c2ccccc2Cl)c1C(=O)N1CCN(c2ccc(F)cc2)CC1 | inconclusive [inhibitor, single point] | –
62 | COc1ccc(CNC(=O)c2cc3c(=O)n(Cc4ccco4)ccc3nc2C)c(OC)c1 | inconclusive [inhibitor, single point] | –
63 | C[C@H]1CCCCO[C@H](CN(C)CC2CCCCC2)[C@@H](C)CN([C@@H](C)CO)C(=O)c2cc(NS(=O)(=O)c3ccccc3)ccc2O1 | inconclusive [inhibitor, single point] | –
64 | Cc1cc(NC(=O)c2ccc3c(c2)OCCO3)ccc1NC(=O)c1ccco1 | inconclusive [inhibitor, single point] | –
65 | C[C@H]1COC(=O)[C@H](NC(=O)OCC2c3ccccc3-c3ccccc32)C/C=C\C[C@H](CC(=O)N(CCO)Cc2ccccc2)C(=O)N1 | active: 9.2 µM | –
66 | COC(=O)C1CCN(C(=O)c2oc3c(Cl)cc(C)cc3c2C)CC1 | inconclusive [inhibitor, single point] | –
67 | O=C(NCCc1c[nH]c2ccccc12)C1CCCN(S(=O)(=O)c2ccccc2)C1 (stereo not given) | inconclusive [inhibitor, partial curve] | –
68 | Cn1cc(-c2cc3n(n2)CCC(=O)N3CCCC(=O)Nc2ccc(Cl)cc2)c2ccccc21 | inconclusive [inhibitor, single point] | –
69 | CC(=O)N(C)c1ccc(N=C2C(=O)Nc3ccccc32)cc1 | – | inactive: -19.8%
70 | COC(=O)c1sc2nc(-c3ccccc3)nc(N3CCN(C)CC3)c2c1C | inconclusive [inhibitor, single point] | –
